Test results as given in PubChem BioAssay AID588591 (National Center for Advancing Translational Sciences (NCATS), 2011).
The whole screen tested about 390,000 compounds, of which about 4,700 (1.2%) were called active. The shares of active, inactive and inconclusive entries below differ from those in the screen. Calls follow the shape of the dose curve; as a rule, active = well fitted inhibition curve with a large enough effect; inconclusive = small, poorly fitted or top-dose-only effect, or another doubt; inactive = no such curve, though single readings can be large or run the other way. Potencies of inconclusive entries are doubtful fits and often do not repeat. Some compounds were tested as several samples or in several runs, with calls that do not always agree.
% is scaled to controls: 0 for no effect and ±100 for the full control effect; potency is read from the fitted curve at half-maximal effect; tags tell the direction and shape of the fitted curve.

Each molecule was assayed against DNA polymerase eta (Homo sapiens) (UniProt Q9Y253) (assay: qHTS for Inhibitors of Polymerase Eta). Details: recombinant Pol eta, fluorescent DNA replication assay; series mostly up to 114 µM; activity change, negative = inhibition: at the top concentration.
UniProt Q9Y253, sequence (Q9Y253 whole entry, looked up): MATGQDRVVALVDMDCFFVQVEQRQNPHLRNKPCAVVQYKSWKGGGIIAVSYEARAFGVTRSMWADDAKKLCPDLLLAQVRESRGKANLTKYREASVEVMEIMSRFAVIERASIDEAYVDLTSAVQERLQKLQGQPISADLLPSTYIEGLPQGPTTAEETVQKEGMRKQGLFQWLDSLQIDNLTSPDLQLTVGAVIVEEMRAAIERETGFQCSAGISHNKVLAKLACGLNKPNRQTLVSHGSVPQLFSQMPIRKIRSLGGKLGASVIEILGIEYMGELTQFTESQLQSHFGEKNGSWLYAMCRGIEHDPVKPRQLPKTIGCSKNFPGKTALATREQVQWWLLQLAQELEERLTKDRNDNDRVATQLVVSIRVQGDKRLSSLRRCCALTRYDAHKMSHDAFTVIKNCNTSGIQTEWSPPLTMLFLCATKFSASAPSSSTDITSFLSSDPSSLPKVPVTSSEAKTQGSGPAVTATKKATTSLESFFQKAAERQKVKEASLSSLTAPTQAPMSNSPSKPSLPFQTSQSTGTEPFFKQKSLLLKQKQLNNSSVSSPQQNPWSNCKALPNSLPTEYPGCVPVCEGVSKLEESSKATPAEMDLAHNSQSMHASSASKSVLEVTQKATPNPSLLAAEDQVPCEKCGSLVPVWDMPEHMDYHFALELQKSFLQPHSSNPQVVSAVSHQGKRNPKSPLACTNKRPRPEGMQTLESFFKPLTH
Outline: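 Pol eta at 10 nM preincubated with compounds 15 min at room temperature; reaction started with fluorescent substrate (50 nM final) and read kinetically at 0 and 10 min.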
COc1ccccc1/C=C/C(=O)OCC(=O)c1c[nH]c2ccccc12 was tested, and the Potency was inconclusive: 25.1 µM [inhibitor, partial curve, poor fit].
In the case of CCN(c1ccc(OC)cc1)S(=O)(=O)c1nnc(NC(=O)COc2ccc(F)cc2)s1, the Potency is reported as inconclusive: 89.1 µM [inhibitor, partial curve, poor fit].
For O=c1cc(-c2ccc(O)cc2)oc2c(C3OCC(O)C(O)C3O)c(O)c(C3OC(CO)C(O)C(O)C3O)c(O)c12 (centres undefined), the Potency was active: 7.94 µM.
In the case of CCN(CC)CCCNC(=O)CCCn1c(=O)[nH]c2ccc(Br)cc2c1=O, the “activity change, negative = inhibition” value is reported as inactive: -13.1%.
With O=C(Nc1cccc(S(=O)(=O)N2CCCCC2)c1)C1CCN(C(=O)c2ccc(Cl)cc2)CC1 the Potency was inconclusive: 50.1 µM [inhibitor, partial curve, poor fit].
In the case of Cc1ccc(C(=O)/C=C/Nc2ccc(S(=O)(=O)Nc3cc(C)nc(C)n3)cc2)cc1, the Potency is reported as inconclusive: 28.2 µM [inhibitor, single point].
In the case of Cc1ccc(N(C)S(=O)(=O)c2ccc3c(c2)C(C)(C)C(=O)N3C)cc1C, the “activity change, negative = inhibition” value is reported as inactive: -9.73%.
In the case of O=C1c2cccc(NCCCNCCO)c2C(=O)c2cccc(NCCCNCCO)c21, the Potency is reported as active: 4.47 µM.
Cc1ccc(NC(=O)Nc2nnc(Cc3ccc([N+](=O)[O-])cc3)s2)cc1 was tested, and the Potency was inconclusive: 2.24 µM [inhibitor, full curve].
COc1ccc2[nH]c(C(=O)N/N=C/c3cc(OC)c(OC)c(OC)c3)cc2c1 was tested, and the Potency was inconclusive: 15.8 µM [inhibitor, full curve, poor fit].
With Cc1ccc(S(=O)(=O)CC(O)COc2ccc(F)cc2Cl)cc1 (centres undefined) the Potency was inconclusive: 89.1 µM [inhibitor, single point].
With Cc1c(OCC(=O)NC(Cc2ccc(Cl)cc2)C(=O)O)ccc2c1oc(=O)c1ccccc12 (centres undefined) the Potency was active: 50.1 µM.
In the case of CCCCn1c(N)c(N(CCOC)C(=O)c2oc3ccc(Br)cc3c2C)c(=O)[nH]c1=O, the Potency is reported as inconclusive: 12.6 µM [inhibitor, full curve, poor fit].
For COC(=O)C1=CN(c2cccc(C(F)(F)F)c2)C=C(C(=O)OC)C1c1ccc(O)c(OC)c1, the Potency was inconclusive: 79.4 µM [inhibitor, partial curve, poor fit].
For Cc1ccc(-c2csc3ncnc(OCC(=O)NC(=O)NCc4ccco4)c23)cc1, the Potency was active: 79.4 µM.
In the case of Cn1cc(S(=O)(=O)N2CCCCCC2)cc1C(=O)NCc1ccc(Cl)cc1, the Potency is reported as inconclusive: 79.4 µM [inhibitor, partial curve, poor fit].
O=[N+]([O-])c1ccc(N=Nc2c(O)[nH]c3ccc(F)cc23)cc1 was tested, and the Potency was inconclusive: 20 µM [inhibitor, full curve, poor fit].
For C#CCOc1ccc(/C=C2/C(=O)N(c3ccc(S(N)(=O)=O)cc3)N=C2C)cc1OC, the Potency was inconclusive: 39.8 µM [inhibitor, single point].
For O=C(COC(=O)Cc1ccc(F)cc1)NCc1ccco1, the Potency was inconclusive: 31.6 µM [inhibitor, full curve].
Cc1ccccc1NC1=C/C(=N\S(=O)(=O)c2ccc(C(=O)O)cc2)c2ccccc2C1=O was tested, and the Potency was active: 5.01 µM.
In the case of Cc1ccc(C2=Nc3ccccc3N(CC(=O)Nc3ccccc3C)C(=O)C2)cc1C, the “activity change, negative = inhibition” value is reported as inactive: 5.42%.
For O=C(O)c1cc(O)c2c(c1)[C@@H]([C@H]1c3cc(C(=O)O)cc(O)c3C(=O)c3c(O[C@@H]4O[C@H](CO)[C@@H](O)[C@H](O)[C@H]4O)cccc31)c1cccc(O[C@@H]3O[C@H](CO)[C@@H](O)[C@H](O)[C@H]3O)c1C2=O, the Potency was active: 0.794 µM.
With Cc1ccc2nc(NC(=O)CSc3nc(=O)n(CCCN(C)C)c4c3CCC4)sc2c1 the Potency was inconclusive: 56.2 µM [inhibitor, partial curve, poor fit].
With NC(=O)c1c(NC(=O)Cc2cccs2)sc2c1CCC2 the Potency was inconclusive: 12.6 µM [inhibitor, partial curve].
In the case of COc1ccc2ccccc2c1/C=N/Nc1ccc(Cl)c(C(=O)O)c1, the Potency is reported as active: 44.7 µM.
For CC1Cc2ccccc2N1C(=O)CSc1nc2ccccc2o1 (centres undefined), the Potency was inconclusive: 44.7 µM [inhibitor, partial curve, poor fit].
In the case of COc1cc(/C=C2/C(=O)NN(c3cccc(Cl)c3)C2=O)cc(Br)c1O, the Potency is reported as active: 89.1 µM.
For COc1ccc(/C=C/C(=O)c2cc(Br)ccc(=O)c2O)cc1, the Potency was active: 31.6 µM.
CCCN(C(=O)c1cc(-c2ccco2)nc2ccccc12)c1c(N)n(Cc2ccccc2)c(=O)[nH]c1=O was tested, and the Potency was active: 15.8 µM.
With COc1ccc(N2C(=O)c3ccc(C(=O)Nc4cc(OC)ccc4OC)cc3C2=O)cc1 the Potency was inconclusive: 39.8 µM [inhibitor, partial curve, poor fit].
For CCCCC(=O)NC(=S)Nc1ccc(Cl)c(C(=O)O)c1, the “activity change, negative = inhibition” value was inactive: 9.48%.
With O=C(CC(c1ccco1)C1CCCCC1=O)c1ccco1 (centres undefined) the Potency was inconclusive: 15.8 µM [inhibitor, full curve, poor fit].
In the case of Cc1coc2c(C)c3oc(=O)c(CCC(=O)N[C@H](C(=O)O)C(C)C)c(C)c3cc12, the Potency is reported as inconclusive: 25.1 µM [inhibitor, single point].
N#C/C(=C\c1ccc(O)c(O)c1)C(=O)c1ccc(O)c(O)c1 was tested, and the Potency was active: 0.126 µM.
In the case of COc1ccc(CN2CCNC(=O)C2CC(=O)N(C)Cc2cc(C)no2)cc1OC (centres undefined), the Potency is reported as inconclusive: 89.1 µM [inhibitor, partial curve, poor fit].
With CC(/C=N/n1c(-c2ccccc2)n[nH]c1=S)=C\c1ccco1 the Potency was inconclusive: 89.1 µM [inhibitor, partial curve, poor fit].
For O=C(O)c1cc(-c2ccc(/C=N/N3C(=O)C4C5C=CC(CC5)C4C3=O)o2)ccc1Cl (centres undefined), the Potency was active: 50.1 µM.
In the case of COC(=O)c1ccc(COc2cccc3c2CCN(Cc2ccccc2)C3=O)o1, the Potency is reported as inconclusive: 39.8 µM [inhibitor, partial curve, poor fit].
For Cc1nn(-c2ccc(C(F)(F)F)cn2)c(C)c1Oc1ccccc1O, the Potency was inconclusive: 22.4 µM [inhibitor, partial curve, poor fit].
Cc1c(C(=O)OCC(C)C)[nH]c2c1C(=O)CC(c1ccco1)C2 (centres undefined) was tested, and the Potency was active: 31.6 µM.
For Cc1cc(NC(=O)CSCC(=O)Nc2nc3ccccc3[nH]2)no1, the Potency was inconclusive: 10 µM [inhibitor, partial curve, poor fit].
In the case of O=C(CCn1c(=O)c2cccn2c2cccnc21)N1CCN(c2ccccc2F)CC1, the “activity change, negative = inhibition” value is reported as inactive: -8.59%.
For N=C1/C(=C\c2coc3ccccc3c2=O)C(=O)N=C2SC=CN12, the Potency was active: 39.8 µM.
With CC(=O)c1cccc(NC(=O)CC(c2ccc(C)cc2)N2Cc3ccccc3C2=O)c1 (centres undefined) the “activity change, negative = inhibition” value was inactive: -18.2%.
O=C(COC(=O)CCCOc1ccc(Cl)cc1Cl)NCc1ccccc1 was tested, and the Potency was inconclusive: 100 µM [inhibitor, partial curve, poor fit].
CC(C)CNC(=O)N1[C@H](c2cccs2)[C@@H](C)C(=O)[C@@H](C)[C@@H]1c1cccs1 was tested, and the “activity change, negative = inhibition” value was inactive: -5.13%.
CC(=O)c1cccc(NC(=O)COc2cc3oc(=O)c(CC(C)O)c(C)c3cc2Cl)c1 (centres undefined) was tested, and the Potency was inconclusive: 31.6 µM [inhibitor, full curve].
For Cc1ccc(C2=NC(=O)/C(=C/c3cc(O)c(O)c(Br)c3)S2)cc1, the Potency was active: 0.794 µM.
For COc1ccc(CCNC(=O)C2CCN(S(=O)(=O)c3cc(OC)ccc3OC)CC2)cc1, the Potency was inconclusive: 39.8 µM [inhibitor, partial curve, poor fit].
In the case of C/C(=N/NC(=O)C(O)(c1ccccc1)c1ccccc1)c1ccc([N+](=O)[O-])o1, the Potency is reported as active: 79.4 µM.
Cc1cccc(NC(=O)CCn2cnnn2)c1C was tested, and the “activity change, negative = inhibition” value was inactive: -0.457%.
In the case of CCOc1[nH]n(-c2ccccc2)c(=O)c1C=Nc1ccccc1, the Potency is reported as inconclusive: 89.1 µM [inhibitor, partial curve, poor fit].
For COc1ccc(N2CCN(CC(=O)Nc3sccc3C#N)CC2)cc1, the Potency was inconclusive: 28.2 µM [inhibitor, partial curve, poor fit].
For Cc1ccccc1S(=O)(=O)NC1OC(=O)C(Cl)=C1Cl (centres undefined), the Potency was inconclusive: 20 µM [inhibitor, partial curve, poor fit].
For Cn1c(SCC(=O)Nc2sccc2C#N)nnc1C1CC1, the Potency was inconclusive: 39.8 µM [inhibitor, single point].
For COc1ccc(N=c2oc3cc(O)ccc3cc2C(=O)Nc2ccccn2)cc1OC, the Potency was inconclusive: 39.8 µM [inhibitor, partial curve].
In the case of C/C=C\C=C/C(=O)Nc1cccc(C2=NOC3(C2)C[C@@H](C(N)=O)N(C(=O)c2ccc(Cl)cc2)C3)c1 (some centres undefined), the “activity change, negative = inhibition” value is reported as inactive: -9.02%.
With CCCCS(=O)(=O)/C=C\C=C/S(=O)(=O)CCCC the Potency was inconclusive: 15.8 µM [inhibitor, full curve, poor fit].
With Cc1ccc(-c2nc(C#N)c(NCc3ccco3)o2)cc1 the Potency was inconclusive: 31.6 µM [inhibitor, single point].
For CCCCn1c(N)c(N(CC(C)C)C(=O)c2ccc(OC)c(S(=O)(=O)N3CCOCC3)c2)c(=O)[nH]c1=O, the “activity change, negative = inhibition” value was inactive: -14.6%.
With COc1ccc(NC(=O)COC(=O)c2ccc(-n3cnnn3)cc2)cc1Cl the Potency was inconclusive: 20 µM [inhibitor, partial curve, poor fit].
CCCc1cc(C(=O)OC)c(NC(=O)CCCC(=O)O)s1 was tested, and the Potency was inconclusive: 3.98 µM [inhibitor, partial curve, poor fit].
With Cc1cccc(CNC(=O)c2ccc3nc(Cc4ccccc4)oc3c2)c1 the “activity change, negative = inhibition” value was inactive: -25.2%.
For COc1ccc(C2c3ccc(O)cc3Oc3ncn4nc(-c5ccco5)nc4c32)cc1OC (centres undefined), the Potency was inconclusive: 35.5 µM [inhibitor, partial curve, poor fit].
